Source: publication PMC12820563
Some of the results follow. The list includes weakly bound sequences.

Molecular target: T1, MBP-FoxP3dN (UniProt Q99JB6)
T1 sequence: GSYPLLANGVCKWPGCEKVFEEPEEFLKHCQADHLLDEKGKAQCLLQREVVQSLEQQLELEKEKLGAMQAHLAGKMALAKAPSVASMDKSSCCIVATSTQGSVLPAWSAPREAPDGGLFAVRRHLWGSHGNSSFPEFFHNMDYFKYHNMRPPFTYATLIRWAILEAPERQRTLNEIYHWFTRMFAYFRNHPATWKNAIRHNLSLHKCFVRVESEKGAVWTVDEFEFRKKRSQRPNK
Test: PD-seq (MBP pull-down with sequencing)
Conditions: 20 mM Tris-HCl pH 7.5, 100 mM NaCl, 1.5 mM MgCl2, 0.4 uM protein, 0.1 uM dsDNA library, 30 min, room temperature, amylose pull-down; high values mean tight binding; double strand, one strand shown

Row | Sequence | binding signal (RPM ratio (pull-down/input))
1 | GATGATTGTTCTCCCAGCTGATGAATTCGCTTCTTCGAGTAAACAAATTTTCCTAATCTTTCTGTTCAAGCGCCATCTAC | 0.73
2 | GATGATTGTTCTCCCAGCTGATGAATTTGAACCGTCGAGTAAACAAATTTTCCTAATCTTTCTGTTCAAGCGCCATCTAC | 0.292
3 | GATGATTGTTCTCCCAGCTGATGAATTGGATCGGTCGAGTAAACAAATTTTCCTAATCTTTCTGTTCAAGCGCCATCTAC | 0.198
4 | GATGATTGTTCTCCCAGCTGATGAATTAGGGAATTCGAGTAAACAAATTTTCCTAATCTTTCTGTTCAAGCGCCATCTAC | 0.853
5 | GATGATTGTTCTCCCAGCTGATGAATTCATTAGATCGAGTAAACAAATTTTCCTAATCTTTCTGTTCAAGCGCCATCTAC | 0.251
6 | GATGATTGTTCTCCCAGCTGATGAATTTCGTATCTCGAGTAAACAAATTTTCCTAATCTTTCTGTTCAAGCGCCATCTAC | 3.84
7 | GATGATTGTTCTCCCAGCTGATGAATTCGATATATCGAGTAAACAAATTTTCCTAATCTTTCTGTTCAAGCGCCATCTAC | 0.823
8 | GATGATTGTTCTCCCAGCTGATGAATTATATTAGTCGAGTAAACAAATTTTCCTAATCTTTCTGTTCAAGCGCCATCTAC | 3.01
9 | GATGATTGTTCTCCCAGCTGATGAATTACCCGGATCGAGTAAACAAATTTTCCTAATCTTTCTGTTCAAGCGCCATCTAC | 0.146
10 | GATGATTGTTCTCCCAGCTGATGAATTCAGGTCCTCGAGTAAACAAATTTTCCTAATCTTTCTGTTCAAGCGCCATCTAC | 0.428
11 | GATGATTGTTCTCCCAGCTGATGAATTTTATGGTTCGAGTAAACAAATTTTCCTAATCTTTCTGTTCAAGCGCCATCTAC | 1.56
12 | GATGATTGTTCTCCCAGCTGATGAATTCGAAGAATCGAGTAAACAAATTTTCCTAATCTTTCTGTTCAAGCGCCATCTAC | 0.179
13 | GATGATTGTTCTCCCAGCTGATGAATTCCCACGCTCGAGTAAACAAATTTTCCTAATCTTTCTGTTCAAGCGCCATCTAC | 0.307
14 | GATGATTGTTCTCCCAGCTGATGAATTAGCTCATTCGAGTAAACAAATTTTCCTAATCTTTCTGTTCAAGCGCCATCTAC | 0.355
15 | GATGATTGTTCTCCCAGCTGATGAATTCTAACCATCGAGTAAACAAATTTTCCTAATCTTTCTGTTCAAGCGCCATCTAC | 0.387
16 | GATGATTGTTCTCCCAGCTGATGAATTCATGGACTCGAGTAAACAAATTTTCCTAATCTTTCTGTTCAAGCGCCATCTAC | 0.405
17 | GATGATTGTTCTCCCAGCTGATGAATTAGTGTGGTCGAGTAAACAAATTTTCCTAATCTTTCTGTTCAAGCGCCATCTAC | 2.28
18 | GATGATTGTTCTCCCAGCTGATGAATTGCTGCTGTCGAGTAAACAAATTTTCCTAATCTTTCTGTTCAAGCGCCATCTAC | 0.711
19 | GATGATTGTTCTCCCAGCTGATGAATTCTACTAGTCGAGTAAACAAATTTTCCTAATCTTTCTGTTCAAGCGCCATCTAC | 0.345
20 | GATGATTGTTCTCCCAGCTGATGAATTTCCCCCCTCGAGTAAACAAATTTTCCTAATCTTTCTGTTCAAGCGCCATCTAC | 0.205

Row | Sequence | binding signal (RPM ratio (pull-down/input))
21 | GATGATTGTTCTCCCAGCTGATGAATTATTTTAATCGAGTAAACAAATTTTCCTAATCTTTCTGTTCAAGCGCCATCTAC | 0.348
22 | GATGATTGTTCTCCCAGCTGATGAATTGTCGGCGTCGAGTAAACAAATTTTCCTAATCTTTCTGTTCAAGCGCCATCTAC | 0.501
23 | GATGATTGTTCTCCCAGCTGATGAATTATTCACATCGAGTAAACAAATTTTCCTAATCTTTCTGTTCAAGCGCCATCTAC | 0.505
24 | GATGATTGTTCTCCCAGCTGATGAATTGCGAGGATCGAGTAAACAAATTTTCCTAATCTTTCTGTTCAAGCGCCATCTAC | 0.538
25 | GATGATTGTTCTCCCAGCTGATGAATTTCGACATTCGAGTAAACAAATTTTCCTAATCTTTCTGTTCAAGCGCCATCTAC | 1.41
26 | GATGATTGTTCTCCCAGCTGATGAATTATAGGTCTCGAGTAAACAAATTTTCCTAATCTTTCTGTTCAAGCGCCATCTAC | 0.458
27 | GATGATTGTTCTCCCAGCTGATGAATTAGCATGTTCGAGTAAACAAATTTTCCTAATCTTTCTGTTCAAGCGCCATCTAC | 1.71
28 | GATGATTGTTCTCCCAGCTGATGAATTTCCAAAATCGAGTAAACAAATTTTCCTAATCTTTCTGTTCAAGCGCCATCTAC | 0.16
29 | GATGATTGTTCTCCCAGCTGATGAATTTTTAAGATCGAGTAAACAAATTTTCCTAATCTTTCTGTTCAAGCGCCATCTAC | 0.181
30 | GATGATTGTTCTCCCAGCTGATGAATTGGAGCACTCGAGTAAACAAATTTTCCTAATCTTTCTGTTCAAGCGCCATCTAC | 0.403
31 | GATGATTGTTCTCCCAGCTGATGAATTCGCACTGTCGAGTAAACAAATTTTCCTAATCTTTCTGTTCAAGCGCCATCTAC | 0.491
32 | GATGATTGTTCTCCCAGCTGATGAATTGAACCTTTCGAGTAAACAAATTTTCCTAATCTTTCTGTTCAAGCGCCATCTAC | 0.324
33 | GATGATTGTTCTCCCAGCTGATGAATTGATAGTGTCGAGTAAACAAATTTTCCTAATCTTTCTGTTCAAGCGCCATCTAC | 0.998
34 | GATGATTGTTCTCCCAGCTGATGAATTTATGGTTTCGAGTAAACAAATTTTCCTAATCTTTCTGTTCAAGCGCCATCTAC | 2.56
35 | GATGATTGTTCTCCCAGCTGATGAATTGCCTCCTTCGAGTAAACAAATTTTCCTAATCTTTCTGTTCAAGCGCCATCTAC | 1.23
36 | GATGATTGTTCTCCCAGCTGATGAATTCAGCGCATCGAGTAAACAAATTTTCCTAATCTTTCTGTTCAAGCGCCATCTAC | 1.15
37 | GATGATTGTTCTCCCAGCTGATGAATTTAGGTACTCGAGTAAACAAATTTTCCTAATCTTTCTGTTCAAGCGCCATCTAC | 0.893
38 | GATGATTGTTCTCCCAGCTGATGAATTCTCGGCGTCGAGTAAACAAATTTTCCTAATCTTTCTGTTCAAGCGCCATCTAC | 0.374
39 | GATGATTGTTCTCCCAGCTGATGAATTAAAGTACTCGAGTAAACAAATTTTCCTAATCTTTCTGTTCAAGCGCCATCTAC | 0.43
40 | GATGATTGTTCTCCCAGCTGATGAATTGAAAACGTCGAGTAAACAAATTTTCCTAATCTTTCTGTTCAAGCGCCATCTAC | 0.286
